PubChem BioAssay AID540267 (National Center for Advancing Translational Sciences (NCATS), 2011)
Among all 340,000 compounds or so, about 530 (0.16%) were called active. The shares of active, inactive and inconclusive entries below differ from those in the screen. Rule as the data show it: active = activity change below about -80%; inconclusive = between about -30% and that limit; inactive = weaker than that.

Test: Small Molecules that selectively kill Giardia lamblia: qHTS;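 also: parasites exposed to compound for two days anaerobically before the ATP read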
Conditions: Giardia lamblia trophozoite viability; at 7.66 µM; active compounds read low
In short: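 Luminescent ATP signal served as the viability read-out, measured 15-30 min after adding ATP detection reagent to trophozoites that had been incubated with compounds for 48 hrs at 37 deg C anaerobically at 100 cells/well.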
% is scaled to controls: 0 for no effect and ±100 for the full control effect.

SMILES | activity change
CCC(Sc1nc(C)cc(=O)[nH]1)C(=O)Nc1ccc(Cl)cn1 (stereo not drawn) | inconclusive: -34.1% [inhibitor]
O=Cc1ccc(Cl)c(Cl)c1 | inconclusive: -30.9% [inhibitor]
COc1ccc(-c2cc3nc(CCl)[nH]c(=O)c3s2)cc1 | inconclusive: -39.6% [inhibitor]
CCNC(=S)NNC(=O)c1cc(-c2ccc(OCC)cc2)nc2ccccc12 | active: -81.1%
Cc1ccc(-c2cc(C(=O)NN=C3CCCC3)c3ccccc3n2)cc1 | inactive: -4.98%
Cc1sc2ncn(CC(=O)NCCCC(=O)N(C)Cc3ccccc3)c(=O)c2c1C | inconclusive: -31.7% [inhibitor]
CC(C)c1nnc(NC(=O)c2cc3ccccc3o2)s1 | inconclusive: -36.7% [inhibitor]
CC(=O)Nc1cccc(C(=O)OCC(=O)c2ccc3c(c2)OCO3)c1 | inconclusive: -59.8% [inhibitor]
CN(C)C(=S)Nc1cccc(C(F)(F)F)c1 | inconclusive: -32.9% [inhibitor]
O=c1cc(-c2ccccc2)oc2ccc(O)cc12 | inconclusive: -30.6% [inhibitor]
Cc1cc(NC(=O)CSc2nc3c(C)ccc(C)c3cc2C#N)no1 | inactive: -8.78%
COc1ccc(NC(=O)CSc2c(C)nn(-c3nnc(C)c(=O)[nH]3)c2C)cc1 | inactive: -9.82%
Cc1nc(-c2ccccc2)cc(-c2ccccc2)n1 | inactive: 18.3%
O=C(CCC1CC(=O)Nc2ccccc21)NCc1cccnc1 (stereo not drawn) | inconclusive: -34.3% [inhibitor]
O=C(Nc1ncc([N+](=O)[O-])s1)c1ccc2c(c1)OCO2 | active: -95.5%
Cc1ccc(S(=O)(=O)N2CCCCC2)cc1C(=O)OC1CCCCC1=O (stereo not drawn) | inactive: -24.5%
CNC(=S)N1N=C(c2ccccc2)CC1c1ccccc1Cl (stereo not drawn) | inconclusive: -31.4% [inhibitor]
COc1ccc(CCNC(=S)N2CCC(C(=O)c3ccc(F)cc3)CC2)cc1OC | inconclusive: -32.2% [inhibitor]
CCNC(=S)N/N=C(\C)c1cc2ccccc2o1 | inactive: 10.5%
O=S(=O)(c1ccc(-c2n[nH]c(=S)o2)cc1)N1CCCC1 | inconclusive: -31% [inhibitor]
O=C(CCNC(=O)c1ccc(Cl)cc1)Nc1ccc(F)cc1F | inconclusive: -30.3% [inhibitor]
CCc1ccccc1NC(=O)C1CCCN(S(=O)(=O)c2ccc3c(c2)CC(C)N3C(C)=O)C1 (stereo not drawn) | inconclusive: -34.3% [inhibitor]
CCOC(=O)c1cc(-c2ccccc2)n(CCC(=O)N2CCN(c3ccccc3OC)CC2)c1C | inactive: -10.3%
CN(C)c1ccc(C#Cc2ccc3cc(CCO)oc(=O)c3c2)cc1 | inconclusive: -34.3% [inhibitor]
O=C1CC(/C=C/c2ccncc2)=Nc2ccccc2N1 | inconclusive: -32.2% [inhibitor]
CN(C)c1ccc(/C=N/NC(=O)c2ccc(-n3cnnn3)cc2)cc1 | inconclusive: -40% [inhibitor]
NC(=O)c1c(NC(=O)CN2C(=O)NC(Cc3ccccc3)C2=O)sc2c1CCC2 (stereo not drawn) | inactive: -1.11%

SMILES | activity change
O=C(Cc1cccc2ccccc12)Nc1ccc(-c2cc3ccccc3oc2=O)cc1 | inactive: 1.35%
C=CCn1c(-c2ccc(Cl)cc2)cnc1SC(C)C(=O)NC(N)=O (stereo not drawn) | inconclusive: -34.3% [inhibitor]
Nc1ncnc2c1ncn2[C@@H]1O[C@H](CNC(=O)[C@@H](N)Cc2ccc(C(F)(F)F)cc2)[C@@H](O)[C@H]1O | inactive: -5.83%
CC(OC(=O)c1ccccc1NCCO)C(=O)NC1CCCCC1C (stereo not drawn) | inactive: -7.39%
O=C(NNc1cc(Cl)cc(Cl)c1)C1CCC1 | inactive: -19.7%
O=C1C(=O)C(c2ccccc2)C(=O)C1c1ccccc1 (stereo not drawn) | inactive: -7.65%
COc1ccc(-c2cc(C(=O)O)nc3ccc4ccccc4c23)cc1OC | inconclusive: -38.6% [inhibitor]
CC1CCC(C(C)C)C(OCC[N+](C)(C)C)C1 (stereo not drawn) | inconclusive: -31.2% [inhibitor]
CC(=O)Nc1ccc(C(=O)NNC(=O)c2cc([N+](=O)[O-])cc([N+](=O)[O-])c2)cc1 | inconclusive: -34.4% [inhibitor]
CS(=O)(=O)c1ccc(C(=O)Nc2ccc(N3CCOCC3)cc2)c(Cl)c1 | inconclusive: -36.7% [inhibitor]
O=C(NCc1ccccn1)c1ccc(COc2ccc(Cl)cc2)o1 | inactive: -7.27%
COc1ccc(/C=C/C(=O)c2cccc(-n3cnnn3)c2)cc1O | inactive: -12.1%
CCOC(=O)c1cnn(-c2cc(Oc3ccccc3)ncn2)c1N | inactive: 11.3%
Clc1ccc2oc(SCc3cccnc3)nc2c1 | inactive: -2.71%
Cc1ccc(S(=O)(=O)NC(=S)c2ccccc2)cc1 | inconclusive: -48.7% [inhibitor]
CCOC(=O)N1CCN(CC(=O)N2c3ccccc3CCc3ccccc32)CC1 | inconclusive: -30.9% [inhibitor]
COc1cccc(-n2nnc3c(=O)n(Cc4cccc(F)c4)cnc32)c1 | inactive: 5.92%
Oc1ccccc1/C=N/[n+]1ccccc1 | inconclusive: -35.7% [inhibitor]
CCN(CC)c1nc(N)n(CCSC(=S)N(C)C)c(=O)n1 | inconclusive: -31.1% [inhibitor]
CCC(=O)N(CCN1CCOCC1)Cc1cc2cc3c(cc2nc1Cl)OCO3 | inactive: -1.25%
Cc1cccc(C)c1NC(=O)C1=C(O)c2ccccc2N(C)S1(=O)=O | inactive: -9.27%
COc1ccc2c(CSc3nnc(-c4cccnc4)n3-c3ccccc3F)cc(=O)oc2c1 | inconclusive: -31.3% [inhibitor]
CCOc1ccc(CCNC(=O)COC(=O)c2ccccc2O)cc1OCC | inactive: -3.51%
S=c1[nH]nc(-c2ccc(Cl)cc2Cl)n1-c1ccc(Cl)cc1 | inconclusive: -33.9% [inhibitor]
CCOc1cc(/C=C2/C(=N)N3C=CSC3=NC2=O)ccc1OCCCOc1ccccc1C | inactive: -11.4%
COc1cccc(-c2nc(CS(=O)(=O)CC(=O)NCC(C)c3ccccc3)c(C)o2)c1 (stereo not drawn) | inactive: -20.2%
